According to article PMC4336329 (PLoS ONE, 2015):
Hit rate of the full screen: of about 310,000 compounds, about 2,200 (0.71%) showed an effect of 50% or more. The effect is printed as a negative number. The list shows a part of the results.

The compounds below were run against human ether-à-go-go-related gene (hERG) potassium channel (human, UniProt Q12809) (assay: primary screen, population patch clamp on CHO cells stably expressing hERG).
human ether-à-go-go-related gene (hERG) potassium channel, sequence (Q12809 whole entry, looked up): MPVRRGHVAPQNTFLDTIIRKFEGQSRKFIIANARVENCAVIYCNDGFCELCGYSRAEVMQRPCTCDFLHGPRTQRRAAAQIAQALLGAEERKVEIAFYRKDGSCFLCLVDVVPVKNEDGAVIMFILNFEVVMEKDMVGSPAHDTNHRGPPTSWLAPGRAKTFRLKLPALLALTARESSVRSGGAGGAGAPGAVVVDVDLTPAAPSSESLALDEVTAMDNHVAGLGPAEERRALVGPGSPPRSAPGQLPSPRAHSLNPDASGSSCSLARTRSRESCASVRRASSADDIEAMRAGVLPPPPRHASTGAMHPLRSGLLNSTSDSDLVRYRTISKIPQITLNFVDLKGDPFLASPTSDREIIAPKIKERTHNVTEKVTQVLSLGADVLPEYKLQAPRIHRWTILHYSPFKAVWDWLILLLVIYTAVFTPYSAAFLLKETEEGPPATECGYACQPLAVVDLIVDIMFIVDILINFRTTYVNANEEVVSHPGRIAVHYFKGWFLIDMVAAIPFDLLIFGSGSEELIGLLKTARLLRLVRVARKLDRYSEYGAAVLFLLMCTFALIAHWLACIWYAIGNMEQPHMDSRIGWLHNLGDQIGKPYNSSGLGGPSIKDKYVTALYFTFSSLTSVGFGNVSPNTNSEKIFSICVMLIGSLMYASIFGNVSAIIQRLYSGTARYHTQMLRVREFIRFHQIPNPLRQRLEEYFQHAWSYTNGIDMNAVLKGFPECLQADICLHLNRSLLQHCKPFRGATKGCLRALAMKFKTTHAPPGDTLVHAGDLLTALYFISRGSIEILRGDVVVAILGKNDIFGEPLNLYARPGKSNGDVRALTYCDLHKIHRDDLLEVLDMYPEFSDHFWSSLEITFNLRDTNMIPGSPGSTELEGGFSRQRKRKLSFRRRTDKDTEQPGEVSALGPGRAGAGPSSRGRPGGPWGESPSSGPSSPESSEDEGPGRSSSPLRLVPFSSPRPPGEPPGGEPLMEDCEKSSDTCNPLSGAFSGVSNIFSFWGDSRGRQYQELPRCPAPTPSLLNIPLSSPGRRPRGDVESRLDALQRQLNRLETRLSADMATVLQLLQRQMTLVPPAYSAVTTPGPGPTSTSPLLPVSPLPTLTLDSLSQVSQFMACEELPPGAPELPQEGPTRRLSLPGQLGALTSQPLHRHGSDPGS

Row | Structure (SMILES) | hERG current change (%, negative = inhibition) at 1uM
1 | CCc1cc2c(=O)[nH]c(Cc3ccc(Cl)cc3)nc2s1 | 7.22%
2 | O=C(CCn1c2c(c3ccccc31)CCCC2)NNC(=O)c1ccc([N+](=O)[O-])cc1 | 7.92%
3 | O=C1NC2(CCCC2)C(=O)N1CC(=O)N(Cc1ccccc1)c1ccccc1 | 3.82%
4 | CC1CCc2nn(CC(=O)N3CCCCCC3)cc2C1 (stereo not shown) | -6.55%
5 | C/C(CC(=O)NC12CC3CC(CC(C3)C1)C2)=N\NC(=O)c1ccc(F)cc1 | -6.52%
6 | CC1(C)CC(=O)c2cn3ncnc3nc2C1 | -0.182%
7 | COc1ccc(C(=O)OCC(=O)NCc2ccco2)cc1S(=O)(=O)N1CCN(c2cccc(Cl)c2)CC1 | 8.38%
8 | O=[N+]([O-])c1ccccc1Nc1nc(-c2cccnc2)cs1 | 10.7%
9 | COc1cc(/C=C/C(=O)OCC(=O)NC(=O)NC2CCCCC2)ccc1OC(F)F | 2.3%
10 | COc1ccc(-c2[nH]ncc2CN2CCCN(C(=O)c3ccco3)CC2)cc1F | -24.5%
11 | Cc1csc(NC(=O)CCNC(=O)c2ccc([N+](=O)[O-])cc2)n1 | -6.76%
12 | CN(C)S(=O)(=O)c1cccc(NC(=S)NNC(=O)c2cc3ccccc3cc2O)c1 | 6.79%
13 | COC(=O)[C@@H]1C[C@H]2CC[C@H](O)C[C@H]2N1Cc1ccccc1OC(=O)c1cccs1 | -1.33%
14 | Cc1[nH]c2ccccc2c1CCCO | 10.6%
15 | CCc1cccc(NC(=O)Cn2cc3c(n2)CCCC3)c1 | 0.19%
16 | O=C(CCCOc1ccc(Cl)cc1Cl)NCCc1nnc2ccccn12 | 8.05%
17 | O=C(NCCCN1CCCCCC1)c1ccc(N2CCCC2=O)cc1 | 2.12%
18 | S=C(Nc1ccc(Br)cc1)N1CCN(c2ccccn2)CC1 | 14%
19 | C=CCN=C1S/C(=C\c2ccc(Cl)cc2)C(=O)N1CC=C | 10.8%
20 | COc1ccccc1CNC(=O)C1CCN(S(=O)(=O)N2CCCCC2)CC1 | 5.25%
21 | COc1ccc2c(c1)C1(Nc3ccccc3-c3nc4ccccc4n31)C(=O)N2C (stereo not shown) | 12.1%
22 | Cc1ccc(Cn2cc(SCC(N)=O)c3ccccc32)cc1 | 7.2%

Row | Structure (SMILES) | hERG current change (%, negative = inhibition) at 1uM
23 | Cc1noc(NS(=O)(=O)c2ccc(NC(=O)C(Cl)(Cl)Cl)cc2)c1C | 19.1%
24 | Cc1nn(-c2ccccc2)c(OC(=O)c2cccs2)c1S(=O)(=O)c1ccccc1 | 4.14%
25 | CC(C)c1ccc(/C=C2\SC(=O)N(CC(=O)NCCCn3ccnc3)C2=O)cc1 | 11.4%
26 | COc1ccc(Cl)cc1NC(=O)N1CCN(CCc2ccccc2)CC1 | -6.36%
27 | COc1cccc2cc(C(=O)CS(=O)(=O)c3ccc(C)cc3)c(=O)oc12 | 12.1%
28 | O=C(O)CC/C(=N/NC(=O)c1cn(-c2ccccc2)nc1-c1ccccc1)C(=O)O | 15.7%
29 | Cc1ccc(C2=NN(C(=O)C3CCCO3)C(c3ccco3)C2)cc1 (stereo not shown) | 10.7%
30 | COc1cc(/C=C2/SC(=S)NC2=O)ccc1OS(=O)(=O)c1ccc(C)cc1 | 7.2%
31 | CCCCN1C2CCCC1CC(NC(=O)c1ccc(OC)c(OC)c1)C2 (stereo not shown) | -17.8%
32 | Cn1c(=O)[nH]c(=O)c2c1nc(N1CCN(Cc3ccccc3)CC1)n2CCCc1ccccc1 | -22%
33 | CC(=O)Nc1ccc(Nc2nc(-c3c(C)nc4ccccn34)cs2)cc1 | 17.9%
34 | COC(=O)c1ccc(NC(=S)NN2CCCCC2c2cccnc2)cc1 (stereo not shown) | -0.525%
35 | CCN(CC)CCN1C(=O)Cn2c(C)c(C)c3cccc1c32.Cl | -12.2%
36 | CCOc1ccc(S(=O)(=O)Nc2cc(F)ccc2F)c2cccnc12 | 13.4%
37 | Cc1ccc(CCNC(=O)C2CCCN(C(=O)N(C)C)C2)cc1 (stereo not shown) | 8.32%
38 | CCOc1ccc(Nc2nc(Cc3nnc(SCC(=O)O)o3)cs2)cc1 | 20%
39 | Cc1cccc2nc(CSc3nc4[nH]ncc4c(=O)n3-c3cccc(Cl)c3)cc(=O)n12 | 5.66%
40 | CN(C)c1ccc(/C=N/O)cc1 | 15.2%
41 | Nc1nnc(-c2ccccc2F)s1 | 10.7%
42 | CCCNC(=O)Cn1cnc2sc(C(=O)Nc3cc(OC)c(OC)c(OC)c3)c(C)c2c1=O | 7.4%
43 | O=C(NCCN1CCOCC1)C1(C(F)(F)F)C/C(=C\Cc2ccccc2)CCCO1 (stereo not shown) | 8.67%
44 | Cc1ccc(C(=O)NNC(=O)CCOc2cccc(C)c2)cc1 | 7.38%

Row | Structure (SMILES) | hERG current change (%, negative = inhibition) at 1uM
45 | Cc1ccccc1NC(=O)C1C2CCCC1C2c1ccccc1 (stereo not shown) | 1.65%
46 | CCSC1=C(C#N)C(c2ccccc2C)CC(=O)N1 (stereo not shown) | 7.34%
47 | Cc1c(NC(=O)C(C#N)=C2CCCCC2)c(=O)n(-c2ccccc2)n1C | 11.4%
48 | CCOc1ccc(NC(=O)CN(C)C(=O)CSCc2c(C)noc2C)cc1OCC | 7.53%
49 | C=CCn1c(C)nnc1SCC(=O)c1[nH]c(C)c(C(C)=O)c1C | 9.55%
50 | Fc1cc2nc(-c3ccncc3)[nH]c2cc1F | -8.72%
51 | CCOC(=O)c1nnn(CC(=O)N2N=C(c3cc(C)ccc3C)CC2c2ccc(OC)cc2)c1C(=O)OCC (stereo not shown) | 7.92%
52 | CNC(=O)CSc1nnc(-c2ccco2)n1-c1ccccc1OC | 3.78%
53 | CC1(C)Cc2c(C#N)c(N)n(-c3ccccc3)c(=O)c2CO1 | 12.7%
54 | COc1c2ccoc2nc2c(OC)c(OC[C@@H](O)C(C)(C)O)ccc12 | 11.6%
55 | Cc1cccc(-n2cnc(C(=O)O)c2)n1 | 14.7%
56 | Oc1ccc(C23CC4CC(CC(C4)C2)C3)cc1O | 17.2%
57 | Cc1cccc(NC(=O)C2CCCN(c3ncnc4c3nc3n4CCCCC3)C2)n1 (stereo not shown) | -11.8%
58 | O=S(=O)(CCN1C=CC(C(F)(F)F)=NCC1)c1ccc(F)cc1 | 4.38%
59 | CN(c1ccc2nc3ccccc3c(=O)n2n1)C1CCCCC1 | 4.9%
60 | COCCN(C(=O)COC(=O)c1cc(C)n(-c2ccccc2)c1C)c1c(N)n(Cc2ccccc2)c(=O)[nH]c1=O | -3.37%
61 | CCNC(=S)NC(=NCc1cccnc1)Nc1nc(C)cc(C)n1 | 19.4%
62 | NNC(=O)[C@H](Cc1ccccc1)NC(=O)Nc1ccc2c(c1)OCCO2 | 8.85%
63 | CCOC(=O)c1[nH]ncc1CN1CCN(Cc2ccccc2)C(CCO)C1 (stereo not shown) | 20.5%
64 | COCc1nc2ccccc2n1CCOc1ccccc1OC | 8.78%
65 | COCC(=O)NC1CCCCCC1 | 11.1%
66 | Cc1nn(Cc2cccc(C(=O)O)c2)c(C)c1[N+](=O)[O-] | 7.02%

Row | Structure (SMILES) | hERG current change (%, negative = inhibition) at 1uM
67 | Cc1cccc(C)c1-n1c(C)cc(/C=N/NC(=O)CSc2ncccn2)c1C | 13.3%
68 | COc1ccc(/C=C/C(=O)O)cc1S(=O)(=O)N1CCC(C)CC1 | 26.1%
69 | Cc1ccc(NC(=O)CN2C(=O)NC3(CCCc4ccccc43)C2=O)cc1S(=O)(=O)N1CCOCC1 (stereo not shown) | 10.2%
70 | CC(C)CC(=O)NC(Nc1ccccc1F)C(Cl)(Cl)Cl (stereo not shown) | 10.1%
71 | Cl.O=C(C1CCCO1)N1CCC(c2nc3ccccc3[nH]2)CC1 (stereo not shown) | 3.35%
72 | Cc1c(CCOC(=O)CC23CC4CC(CC(C)(C4)C2)C3)sc[n+]1CC(=O)c1ccccc1.[Br-] | -5.09%
73 | Cc1nc2scc(-c3ccc(Cl)cc3)c2c(=O)n1N | 9.12%
74 | Cn1c(=O)c2c(ncn2CC(=O)OCC(=O)Nc2ccccc2Cl)n(C)c1=O | 16.4%
75 | COc1cc2c(cc1OC)CN(C(=O)c1cc(=O)c3ccccc3o1)CC2 | 4%
76 | CCN(CC(=O)NCc1ccc(Cl)cc1)C(=O)c1cccc(S(=O)(=O)Nc2ccc(OC)cc2)c1 | 12.7%
77 | Nc1ccc(S(=O)(=O)NCC(=O)OC2CCOC2=O)cc1[N+](=O)[O-] (stereo not shown) | 10.8%
78 | CSCCOC(=O)C1=C(C)NC(=O)NC1c1ccc2c(c1)OCO2 (stereo not shown) | 12.2%
79 | CC(C)C(C(=O)NCC1CCCO1)N(C(=O)CNS(=O)(=O)c1ccccc1)C1CCCCC1 (stereo not shown) | 14.1%
80 | Cc1cccc(N2CCN(C(=O)C3CCN(c4ncnc5c4nc4n5CCCCC4)CC3)CC2C)c1 (stereo not shown) | 10.1%
81 | N#Cc1ccc(N2Cc3ccccc3C2=NC(=O)c2cccnc2Cl)cc1 | 5.16%
82 | CN(C)S(=O)(=O)c1ccc(NC(=O)COC(=O)C2CC3CCCC(C2)C3=O)cc1 (stereo not shown) | -0.434%
83 | CN(CC(=O)Nc1ccccc1Br)C(=O)CNC(=O)c1ccc2c(c1)OCO2 | 15.3%
84 | CSc1ccc(/C=C/C(=O)N2CCN(c3ccccn3)CC2)cc1 | 8.93%
85 | CC(C)C12CN3CC(C(C)C)(CN(C1)C3c1ccco1)C2=O (stereo not shown) | 13.7%
86 | COc1ccc(CNS(=O)(=O)c2cccc(S(=O)(=O)N3CCOCC3)c2)cc1 | -9.42%
87 | Cn1cc(CNC(=O)c2cc(COc3ccc4c(c3)CCCC4)on2)cn1 | 6.83%
88 | Cc1ccc(OCC(=O)NNC(=O)c2cccnc2)cc1 | 12%
